{"sequences": {"note": "Protein sequences, listed by entry. Tags and fused reporters are not part of them.", "UniProt P35222": "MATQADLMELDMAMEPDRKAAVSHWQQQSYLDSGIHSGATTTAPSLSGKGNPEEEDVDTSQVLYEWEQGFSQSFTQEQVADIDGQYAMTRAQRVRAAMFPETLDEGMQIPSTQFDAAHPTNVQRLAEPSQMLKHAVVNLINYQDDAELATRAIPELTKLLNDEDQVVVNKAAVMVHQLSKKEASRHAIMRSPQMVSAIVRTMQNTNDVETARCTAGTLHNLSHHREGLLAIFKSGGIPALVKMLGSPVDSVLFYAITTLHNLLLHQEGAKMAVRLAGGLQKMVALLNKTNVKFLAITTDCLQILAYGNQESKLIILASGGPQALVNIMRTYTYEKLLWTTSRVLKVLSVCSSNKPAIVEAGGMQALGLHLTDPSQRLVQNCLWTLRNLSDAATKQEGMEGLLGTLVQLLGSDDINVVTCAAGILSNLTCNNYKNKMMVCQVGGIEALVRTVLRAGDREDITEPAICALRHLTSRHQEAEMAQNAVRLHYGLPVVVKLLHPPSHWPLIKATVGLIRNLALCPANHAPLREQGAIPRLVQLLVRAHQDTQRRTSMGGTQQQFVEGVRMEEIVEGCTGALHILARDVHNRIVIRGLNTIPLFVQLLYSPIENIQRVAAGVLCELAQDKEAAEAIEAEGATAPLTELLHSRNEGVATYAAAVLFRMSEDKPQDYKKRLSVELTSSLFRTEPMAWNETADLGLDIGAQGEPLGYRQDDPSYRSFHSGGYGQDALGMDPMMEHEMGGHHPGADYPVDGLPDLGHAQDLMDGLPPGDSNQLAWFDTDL"}, "source": "paper PMC3877284", "binders": {"B1": {"name": "p120catenin (protein, UniProt O60716 1-968)", "chain": "MDDSEVESTASILASVKEQEAQFEKLTRALEEERRHVSAQLERVRVSPQDANPLMANGTLTRRHQNGRFVGDADLERQKFSDLKLNGPQDHSHLLYSTIPRMQEPGQIVETYTEEDPEGAMSVVSVETSDDGTTRRTETTVKKVVKTVTTRTVQPVAMGPDGLPVDASSVSNNYIQTLGRDFRKNGNGGPGPYVGQAGTATLPRNFHYPPDGYSRHYEDGYPGGSDNYGSLSRVTRIEERYRPSMEGYRAPSRQDVYGPQPQVRVGGSSVDLHRFHPEPYGLEDDQRSMGYDDLDYGMMSDYGTARRTGTPSDPRRRLRSYEDMIGEEVPSDQYYWAPLAQHERGSLASLDSLRKGGPPPPNWRQPELPEVIAMLGFRLDAVKSNAAAYLQHLCYRNDKVKTDVRKLKGIPVLVGLLDHPKKEVHLGACGALKNISFGRDQDNKIAIKNCDGVPALVRLLRKARDMDLTEVITGTLWNLSSHDSIKMEIVDHALHALTDEVIIPHSGWEREPNEDCKPRHIEWESVLTNTAGCLRNVSSERSEARRKLRECDGLVDALIFIVQAEIGQKDSDSKLVENCVCLLRNLSYQVHREIPQAERYQEAAPNVANNTGPHAASCFGAKKGKDEWFSRGKKPIEDPANDTVDFPKRTSPARGYELLFQPEVVRIYISLLKESKTPAILEASAGAIQNLCAGRWTYGRYIRSALRQEKALSAIADLLTNEHERVVKAASGALRNLAVDARNKELIGKHAIPNLVKNLPGGQQNSSWNFSEDTVISILNTINEVIAENLEAAKKLRETQGIEKLVLINKSGNRSEKEVRAAALVLQTIWGYKELRKPLEKEGWKKSDFQVNLNNASRSQSSHSYDDSTLPLIDRNQKSDKKPDREEIQMSNMGSNTKSLDNNYSTPNERGDHNRTLDRSGDLGDMEPLKGTTPLMQDEGQESLEEELDVLVLDDEGGQVSYPSMQKI"}, "B2": {"name": "flotillin-2 (protein, UniProt Q14254 1-428)", "chain": "MGNCHTVGPNEALVVSGGCCGSDYKQYVFGGWAWAWWCISDTQRISLEIMTLQPRCEDVETAEGVALTVTGVAQVKIMTEKELLAVACEQFLGKNVQDIKNVVLQTLEGHLRSILGTLTVEQIYQDRDQFAKLVREVAAPDVGRMGIEILSFTIKDVYDKVDYLSSLGKTQTAVVQRDADIGVAEAERDAGIREAECKKEMLDVKFMADTKIADSKRAFELQKSAFSEEVNIKTAEAQLAYELQGAREQQKIRQEEIEIEVVQRKKQIAVEAQEILRTDKELIATVRRPAEAEAHRIQQIAEGEKVKQVLLAQAEAEKIRKIGEAEAAVIEAMGKAEAERMKLKAEAYQKYGDAAKMALVLEALPQIAAKIAAPLTKVDEIVVLSGDNSKVTSEVNRLLAELPASVHALTGVDLSKIPLIKKATGVQV"}, "B3": {"name": "γ-catenin (protein, UniProt P14923 1-745)", "chain": "MEVMNLMEQPIKVTEWQQTYTYDSGIHSGANTCVPSVSSKGIMEEDEACGRQYTLKKTTTYTQGVPPSQGDLEYQMSTTARAKRVREAMCPGVSGEDSSLLLATQVEGQATNLQRLAEPSQLLKSAIVHLINYQDDAELATRALPELTKLLNDEDPVVVTKAAMIVNQLSKKEASRRALMGSPQLVAAVVRTMQNTSDLDTARCTTSILHNLSHHREGLLAIFKSGGIPALVRMLSSPVESVLFYAITTLHNLLLYQEGAKMAVRLADGLQKMVPLLNKNNPKFLAITTDCLQLLAYGNQESKLIILANGGPQALVQIMRNYSYEKLLWTTSRVLKVLSVCPSNKPAIVEAGGMQALGKHLTSNSPRLVQNCLWTLRNLSDVATKQEGLESVLKILVNQLSVDDVNVLTCATGTLSNLTCNNSKNKTLVTQNSGVEALIHAILRAGDKDDITEPAVCALRHLTSRHPEAEMAQNSVRLNYGIPAIVKLLNQPNQWPLVKATIGLIRNLALCPANHAPLQEAAVIPRLVQLLVKAHQDAQRHVAAGTQQPYTDGVRMEEIVEGCTGALHILARDPMNRMEIFRLNTIPLFVQLLYSSVENIQRVAAGVLCELAQDKEAADAIDAEGASAPLMELLHSRNEGTATYAAAVLFRISEDKNPDYRKRVSVELTNSLFKHDPAAWEAAQSMIPINEPYGDDMDATYRPMYSSDVPLDPLEMHMDMDGDYPIDTYSDGLRPPYPTADHMLA"}, "B4": {"name": "flotillin-1 (protein, UniProt O75955 1-427)", "chain": "MFFTCGPNEAMVVSGFCRSPPVMVAGGRVFVLPCIQQIQRISLNTLTLNVKSEKVYTRHGVPISVTGIAQVKIQGQNKEMLAAACQMFLGKTEAEIAHIALETLEGHQRAIMAHMTVEEIYKDRQKFSEQVFKVASSDLVNMGISVVSYTLKDIHDDQDYLHSLGKARTAQVQKDARIGEAEAKRDAGIREAKAKQEKVSAQYLSEIEMAKAQRDYELKKAAYDIEVNTRRAQADLAYQLQVAKTKQQIEEQRVQVQVVERAQQVAVQEQEIARREKELEARVRKPAEAERYKLERLAEAEKSQLIMQAEAEAASVRMRGEAEAFAIGARARAEAEQMAKKAEAFQLYQEAAQLDMLLEKLPQVAEEISGPLTSANKITLVSSGSGTMGAAKVTGEVLDILTRLPESVERLTGVSISQVNHKPLRTA"}}, "key": {"[1]": {"target": "T1, flotillin-2 (human (endogenous in MCF10A, MCF7, HaCaT, Hep3B, HeLa)) (UniProt Q14254)", "T1 sequence": "B2 chain", "assay": "co-IP; IP with antibodies against flotillin-2 and flotillin-1 from MCF7 cells grown confluent for 5 days; 750 µg total protein"}, "[2]": {"target": "T2, flotillin-1 (human (endogenous in MCF10A, MCF7, HaCaT, Hep3B, HeLa)) (UniProt O75955)", "T2 sequence": "B4 chain", "assay": "co-IP; IP with antibodies against flotillin-2 and flotillin-1 from MCF7 cells grown confluent for 5 days; 750 µg total protein"}, "[3]": {"target": "T3, γ-catenin (human (endogenous in MCF10A, MCF7, HaCaT, Hep3B, HeLa)) (UniProt P14923)", "T3 sequence": "B3 chain", "assay": "co-IP; IP with an antibody against γ-catenin; 750 µg total protein"}, "[4]": {"target": "β-catenin-GST (UniProt P35222)", "assay": "pull-down; indirect GST pulldown: 5 µg GST-tagged protein on glutathione sepharose beads with MCF10A lysate (1.2-1.25 mg total protein; also lysates of flotillin-1 or flotillin-2 knockdown MCF10A cells), over night at 4°C; 10 mM Tris-HCl pH 8.0, 150 mM NaCl, 5 mM EDTA, 0.5% Triton X-100, 60 mM N-octylglucoside; only the target purified"}, "[5]": {"target": "T4, flotillin-1-GST (rat) (UniProt Q9Z1E1)", "T4 sequence": "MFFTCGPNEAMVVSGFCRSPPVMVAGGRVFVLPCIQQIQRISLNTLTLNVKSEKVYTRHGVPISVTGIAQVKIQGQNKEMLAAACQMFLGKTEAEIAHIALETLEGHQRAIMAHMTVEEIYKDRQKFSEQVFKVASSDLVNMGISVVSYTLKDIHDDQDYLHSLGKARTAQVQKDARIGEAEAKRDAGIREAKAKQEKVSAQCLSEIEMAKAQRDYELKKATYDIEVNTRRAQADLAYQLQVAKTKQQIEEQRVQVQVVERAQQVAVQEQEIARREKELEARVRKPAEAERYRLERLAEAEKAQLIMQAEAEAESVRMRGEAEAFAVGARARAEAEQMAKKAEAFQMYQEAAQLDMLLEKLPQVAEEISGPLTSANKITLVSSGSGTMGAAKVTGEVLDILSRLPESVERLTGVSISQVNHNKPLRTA", "assay": "pull-down; indirect GST pulldown: 5 µg GST-tagged protein on glutathione sepharose beads with MCF10A lysate (1.2-1.25 mg total protein; also lysates of flotillin-1 or flotillin-2 knockdown MCF10A cells), over night at 4°C; 10 mM Tris-HCl pH 8.0, 150 mM NaCl, 5 mM EDTA, 0.5% Triton X-100, 60 mM N-octylglucoside; only the target purified"}, "[6]": {"target": "T5, flotillin-2-GST (rat) (UniProt Q9Z2S9)", "T5 sequence": "B2 chain with A372S, K422N, V426A", "assay": "pull-down; indirect GST pulldown: 5 µg GST-tagged protein on glutathione sepharose beads with MCF10A lysate (1.2-1.25 mg total protein; also lysates of flotillin-1 or flotillin-2 knockdown MCF10A cells), over night at 4°C; 10 mM Tris-HCl pH 8.0, 150 mM NaCl, 5 mM EDTA, 0.5% Triton X-100, 60 mM N-octylglucoside; only the target purified"}, "[7]": {"target": "T1, flotillin-2 (human (endogenous in MCF10A, MCF7, HaCaT, Hep3B, HeLa))", "assay": "co-IP; IP with polyclonal flotillin-1 or flotillin-2 antibody on Dynabeads protein A from lysate of MCF10A cells grown confluent for 5 days; 750 µg total protein; 10 mM Tris-HCl pH 8.0, 150 mM NaCl, 5 mM EDTA, 0.5% Triton X-100, 60 mM N-octylglucoside"}, "[8]": {"target": "T1, flotillin-2 (human (endogenous in MCF10A, MCF7, HaCaT, Hep3B, HeLa))", "assay": "co-IP; IP with flotillin-1 or flotillin-2 antibodies from MCF7, HaCaT, Hep3B and HeLa lysates; 750 µg total protein"}}, "note": "Numbering of substitutions follows the chain as printed. Results are given in words; binding and its absence hold for the method and conditions named. Binding seen in cells or lysates may run through a third protein. Some binding calls cover weakened binding; strength is not graded here. For some of these results: Tags and fused reporters may be left off the sequences shown.", "data": [{"binder": "B1", "values": [{"measurement": "binding", "setting": "[1]", "value": "binds weakly"}, {"measurement": "binding", "setting": "[2]", "value": "no binding"}]}, {"binder": "B2", "values": [{"measurement": "binding", "setting": "[3]", "value": "binds"}, {"measurement": "binding", "setting": "[4]", "value": "binds"}]}, {"binder": "B3", "values": [{"measurement": "binding", "setting": "[5]", "value": "binds"}, {"measurement": "binding", "setting": "[6]", "value": "binds"}, {"measurement": "binding", "setting": "[7]", "value": "binds"}, {"measurement": "binding", "setting": "[8]", "value": "binds"}, {"measurement": "binding", "setting": "[1]", "value": "binds"}]}, {"binder": "B4", "values": [{"measurement": "binding", "setting": "[7]", "value": "binds"}]}]}
